In all, about 310,000 compounds went through this assay and about 14,000 (4.5%) showed an effect of 50% or more. Effects have a minus sign here. Some of the results follow.
These compounds were tested against human ether-à-go-go-related gene (hERG) potassium channel (human, UniProt Q12809) (assay: primary screen, population patch clamp on CHO cells stably expressing hERG).
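Note: peak tail current of the secondary pulse compared with the same well before compound.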

Sequence of human ether-à-go-go-related gene (hERG) potassium channel (Q12809 whole entry, looked up): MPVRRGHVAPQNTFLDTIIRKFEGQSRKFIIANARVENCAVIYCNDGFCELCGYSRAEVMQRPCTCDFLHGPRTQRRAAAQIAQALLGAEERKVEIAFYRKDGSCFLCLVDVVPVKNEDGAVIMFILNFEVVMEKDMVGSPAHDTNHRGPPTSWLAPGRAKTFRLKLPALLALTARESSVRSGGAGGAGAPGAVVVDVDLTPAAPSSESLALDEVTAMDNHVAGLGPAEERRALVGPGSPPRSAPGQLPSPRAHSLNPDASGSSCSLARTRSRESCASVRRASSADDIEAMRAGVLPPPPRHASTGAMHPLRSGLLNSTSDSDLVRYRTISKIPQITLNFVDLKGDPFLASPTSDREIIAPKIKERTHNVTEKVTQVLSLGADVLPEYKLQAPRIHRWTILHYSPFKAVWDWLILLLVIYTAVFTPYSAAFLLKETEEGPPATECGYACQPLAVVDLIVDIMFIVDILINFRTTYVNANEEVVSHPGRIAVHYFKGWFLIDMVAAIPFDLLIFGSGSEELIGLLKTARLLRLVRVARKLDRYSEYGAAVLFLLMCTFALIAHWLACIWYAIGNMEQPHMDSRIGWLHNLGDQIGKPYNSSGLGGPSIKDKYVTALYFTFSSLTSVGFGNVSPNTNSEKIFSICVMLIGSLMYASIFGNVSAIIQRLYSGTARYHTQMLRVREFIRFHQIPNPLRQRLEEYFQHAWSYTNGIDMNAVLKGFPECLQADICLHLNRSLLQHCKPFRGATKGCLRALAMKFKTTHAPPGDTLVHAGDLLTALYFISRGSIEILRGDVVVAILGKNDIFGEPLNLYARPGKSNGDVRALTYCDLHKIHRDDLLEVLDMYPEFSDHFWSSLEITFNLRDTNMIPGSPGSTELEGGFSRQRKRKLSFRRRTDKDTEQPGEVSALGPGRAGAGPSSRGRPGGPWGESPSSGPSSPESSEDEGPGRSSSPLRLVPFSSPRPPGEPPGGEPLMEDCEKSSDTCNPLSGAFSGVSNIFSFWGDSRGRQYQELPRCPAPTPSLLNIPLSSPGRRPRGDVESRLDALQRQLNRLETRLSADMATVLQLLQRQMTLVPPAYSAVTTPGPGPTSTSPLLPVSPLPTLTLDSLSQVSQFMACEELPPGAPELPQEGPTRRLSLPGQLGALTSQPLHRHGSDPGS

Row | Structure (SMILES) | hERG current change (%, negative = inhibition) at 10uM [%]
1 | O=C(CCCc1ccccc1)N1CCN(C2CCCCC2)CC1 | -70.8
2 | CCOc1ccc(-c2nc(N)nc(C)c2-c2ccc(Cl)cc2)c(O)c1 | -0.459
3 | Cc1cc(O)c(C=Nc2ccc(Cl)cn2)c(=O)o1 | 14.5
4 | CCOC(=O)CNC(=O)c1cn(CC)c(=O)c2cc(OC)c(OC)cc12 | 15.2
5 | COc1ccc(S(=O)(=O)N2CCOC2CNC(=O)C(=O)NCCN2CCOCC2)cc1C (centres unmarked) | 15.8
6 | O=C(CNc1ccc2ccccc2c1)N/N=C/c1ccccn1 | 4.04
7 | CC1CC(C)CN(C(=O)c2cccc(S(=O)(=O)Nc3cc(C(F)(F)F)ccc3Cl)c2)C1 (centres unmarked) | -11.4
8 | CC(=O)c1ccc(S(=O)(=O)Nc2ccc(N3CCOCC3)cc2)cc1 | -8.77
9 | O=C(NNc1ccc(F)cc1)c1c(F)cccc1Cl | 9.01
10 | COc1ccccc1N1CCN(C(=O)C2CCCN(c3ncnc4c3nc3n4CCCCC3)C2)CC1 (centres unmarked) | -12.5
11 | O=C(/C=C/c1ccccc1)N(c1ccccn1)C1CCCCC1 | -19.3
12 | Cc1ccc(N2CCN(/N=C/c3sccc3C)CC2)cc1 | -7.68
13 | CC(C)(C)c1ccc(/C=C2\Oc3c(ccc(O)c3CN3CCN(CCO)CC3)C2=O)cc1 | -31
14 | O=[N+]([O-])c1ccccc1S(=O)(=O)Nc1ccc(S(=O)(=O)N2CCOCC2)cc1 | 14.7
15 | Cc1cc(C)n2c3c(c(C#N)c2n1)CCCC3 | 6.93
16 | Nc1c(C=C2C=CC(=O)C=C2)c(=O)nc2snc(SCc3ccccc3)n12 | 8.76
17 | Cc1nnc(SCC(=O)Nc2nc(C(C)(C)C)cs2)s1 | -10.2
18 | CCOc1ccc(S(=O)(=O)n2cc(F)c(=O)[nH]c2=O)cc1[N+](=O)[O-] | 17.4
19 | CC(C)(C)n1ncc2c(=O)n(CC(=O)NCc3ccccc3Cl)cnc21 | 9.04
20 | CCc1ccc(NC(=O)C[n+]2cc(-c3ccc(C)cc3)n3c2CCC3)cc1.[Cl-] | -63.1
21 | Cc1cccc(NC(=O)COC(=O)c2ccc3c(=O)n4c(nc3c2)CCC4)c1 | -5.96
22 | CCOC(=O)c1cnc(-n2nc(C)cc2C)nc1N(CC)CC | -12.7

Row | Structure (SMILES) | hERG current change (%, negative = inhibition) at 10uM [%]
23 | CN(C)c1cccc(C(=O)n2cc(C(=O)c3cc(F)ccc3O)cn2)c1 | 15.2
24 | COCCNc1oc(-c2ccc(C)cc2)nc1C#N | 8.26
25 | CCCCCCCC(=O)NNC(=O)c1ccc(F)cc1 | -18.2
26 | COc1ccc([C@@H]2[C@@H]3C(=O)N(C(C)(C)C)C(=O)[C@@H]3[C@]3(Cc4ccccc4)C(=O)N(c4ccccc4)C(=O)N23)cc1 | 0.303
27 | COc1ccc(CN(CC(=O)NCC2CCCO2)C(=O)CNS(=O)(=O)c2ccc(C)cc2)cc1 (centres unmarked) | -2.26
28 | CCOC(=O)c1cccc2c(=O)c(C(=O)c3ccc(Cl)cc3)c(C(=O)OC)[nH]c12 | 5.07
29 | Cc1ccc2c(c1)C1CN(C)CCC1N2C(=S)Nc1ccc(OC(F)F)cc1 (centres unmarked) | -55.1
30 | COc1ccc(CCN(C)CCC(=O)Nc2cc(C)ccc2C)cc1OC | -55.6
31 | CCN1C(=O)C(CC(=O)Nc2ccc(OC)cc2)N(Cc2ccc(OC)c(OC)c2)C1=S (centres unmarked) | -14.4
32 | Cc1ccc(C(=O)c2c[nH]c3c(F)cc(F)cc3c2=O)cc1 | 1.03
33 | N#Cc1ccc(Cl)cc1NC(=O)COC(=O)[C@H](CCC(N)=O)NC(=O)c1ccc(F)cc1 | 1.75
34 | COc1ccc(/C=C/c2c([N+](=O)[O-])c(=O)n(C)c(=O)n2C)c(OC)c1 | 3.51
35 | Cc1ccc(Cn2nnc(C(=O)Nc3cccc(C)c3C)c2N)cc1 | 1.41
36 | COc1ccc(C2CC(=O)C3=C(C2)Nc2ccccc2N(C(=O)CCC(=O)O)C3c2ccc(F)cc2)cc1 (centres unmarked) | 2.56
37 | Cc1cccc(CS(=O)(=O)Cc2ccc(C(=O)NCc3cccs3)o2)c1 | -38.8
38 | Fc1ccc2nc3[nH]c4ccccc4c3nc2c1 | 11.1
39 | O=S(=O)(c1ccc(N2CCN(S(=O)(=O)c3ccccc3)CC2)nc1)N1CCCC1 | 9.03
40 | Cc1ccc(S(=O)(=O)C2(S(=O)(=O)c3ccc(C)cc3)CCCC2)cc1 | -23.9
41 | Cc1cccnc1NC(=O)Nc1ccccc1 | 1.64
42 | Cc1nc(N)nc(COc2ccccc2)n1 | 16.6
43 | CCOC(=O)COn1c(=O)c(-c2ccccc2)[n+]([O-])c2ccccc21 | 3.61
44 | Cc1ccccc1OCC(=O)OC1CCN(C)CC1.Cl | 2.02

Row | Structure (SMILES) | hERG current change (%, negative = inhibition) at 10uM [%]
45 | Cc1ccnc(NC(=O)CN(C)S(=O)(=O)c2cccc3nsnc23)c1 | 7.8
46 | CC(C)C(=O)N1CC(=O)Nc2ccc(F)cc2C1c1ccc(F)cc1 (centres unmarked) | -2.87
47 | O=C(NCCNC(=O)c1cnccn1)c1ccc(Cl)cc1 | -5.33
48 | CCCn1cccc(C(=O)Nc2ccc(OC)cc2)c1=O | -22.5
49 | COc1ccc(NC(=O)CN2CCC(C)CC2)c([N+](=O)[O-])c1 | -12.6
50 | CCc1ccc(C2=C/C(=C/c3cccnc3)C(=O)O2)cc1 | 3.06
51 | COC(=O)C1=C(C)NC2=C(C(=O)CCC2)C1c1coc2ccccc2c1=O (centres unmarked) | 1.35
52 | COc1cccc(C(=O)CSc2nnc(-c3cccs3)o2)c1 | -3.51
53 | Cc1ccccc1NC(=O)Nc1nnc(Cc2ccc([N+](=O)[O-])cc2)s1 | 2
54 | O=C(CN1C(=O)NC2(CCCC2)C1=O)OCc1c(F)cccc1Cl | 6.15
55 | Cc1ccc(-c2noc(-c3ccccc3F)n2)cc1 | 16.4
56 | CCCCN1C2CCCC1CC(NC(=O)c1cccc(Cl)c1)C2 (centres unmarked) | -75.5
57 | O=C(CSc1ccc2nnc(-c3ccccn3)n2n1)Nc1ccccc1C(F)(F)F | -23.9
58 | O=C(c1ccc(F)c([N+](=O)[O-])c1)N1CC2CC(C1)c1cccc(=O)n1C2 (centres unmarked) | 0.448
59 | CCN(CC)C(=O)N1CCN(S(=O)(=O)c2ccc(C)cc2)CC1 | -13.5
60 | C=CCNC(=O)c1c[nH]c2ccc(S(=O)(=O)N(C)c3ccc(OCC)cc3)cc2c1=O | 12.9
61 | CC(C)N(CCNC(=O)C1CCCN(c2ncnc3c2nc2n3CCCCC2)C1)Cc1ccccc1 (centres unmarked) | -37.3
62 | O=C(O)CCN1C(=O)c2ccc(NC(=O)CSc3ccc(Cl)cc3)cc2C1=O | 21
63 | CC(C)[C@H]1CN(C)CCN1Cc1cn(C)nc1-c1cccc(Cl)c1 | -27
64 | O=[N+]([O-])c1ccc(N2CCOCC2)c(S(=O)(=O)N2CCOCC2)c1 | -20
65 | O=C1N/C(=N/N=C/c2ccccc2O)SC1Cc1ccc(F)cc1 (centres unmarked) | 19.6
66 | Cc1cn(S(=O)(=O)c2ccc(Cl)cc2)c(C)n1 | -21.8

Row | Structure (SMILES) | hERG current change (%, negative = inhibition) at 10uM [%]
67 | Cc1noc(C)c1CSc1nnc(-c2ccccc2)o1 | 7.8
68 | CCOC(=O)c1[nH]c(C)c(C(=O)OCc2c(C)noc2C)c1C | -4.38
69 | O=S(=O)(c1ccc(OCC(O)CNC23CC4CC(CC(C4)C2)C3)c(Cl)c1)N1CCOCC1 (centres unmarked) | 5.97
70 | O=C(NCC(=O)N1CCCCCCC1)c1ccc(Cl)cc1 | 1.14
71 | O=Cc1ccc(-c2ccccc2C(=O)O)o1 | 15.5
72 | Cc1[nH]c2ccccc2c1-c1csc(NC(=O)CSCC(=O)O)n1 | -1.46
73 | Cc1cc(=O)[nH]c(N/N=C/c2ccc([N+](=O)[O-])cc2)n1 | 3.44
74 | O=C(Oc1cccc(/C=N/NC(=O)c2ccccn2)c1)c1ccc([N+](=O)[O-])cc1 | 21.5
75 | CCOC(=O)[C@H]1[C@H]2COc3ccc(OC)cc3[C@@H]2N2C(=O)c3ccc(Cl)cc3NC(=O)[C@@]12C | -28.5
76 | CCC(Cc1ccccc1)NC(=O)C1=C(C)C(=O)OC12CCC(C)CC2 (centres unmarked) | 3.74
77 | O=C1Cc2ccccc2C(c2ccc(Cl)cc2Cl)N1 (centres unmarked) | -14.1
78 | COc1ccccc1NC(=O)CCS(=O)(=O)c1ccc2c(c1)NC(=O)C(C)S2 (centres unmarked) | -4.76
79 | CCCN1C(=O)C(O)(C/C(C)=N/O)c2ccccc21 (centres unmarked) | 9.14
80 | O=C(COc1ccccc1C(=O)NCc1ccccc1)Nc1ccccc1 | -15
81 | CC(C)=CC(=O)OCC(=O)Nc1ccc(Cl)cn1 | 13.5
82 | COc1cc2c(cc1OC)C(C(=O)N1CCC3(CC1)OCCO3)C(c1ccccc1F)N(C)C2=O (centres unmarked) | 7.45
83 | O=c1[nH]oc(O)c1-c1ncc(C(F)(F)F)cc1Cl | 3.92
84 | CC(=O)NCC(=O)OCC(=O)Nc1nc(-c2ccccc2)cs1 | 30.4
85 | CS(=O)(=O)N(CC(=O)NCc1ccco1)c1ccc(OCc2ccccc2)cc1 | -0.371
86 | CC[C@H](C)[C@@H]1NC(=O)c2cc([N+](=O)[O-])cc(F)c2NCCCC[C@@H](C(N)=O)NC(=O)[C@H](CCCCN)NC1=O | 11.4

From article PMC4336329 (PLoS ONE, 2015)
